Results taken from PMC4336329 (PLoS ONE, 2015).
Hit rate of the full screen: of about 310,000 compounds, about 14,000 (4.5%) showed an effect of 50% or more. The effect is printed as a negative number. The list shows a part of the results.

Molecular target: human ether-à-go-go-related gene (hERG) potassium channel (human, UniProt Q12809)
Test: primary screen, population patch clamp on CHO cells stably expressing hERG
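Note: peak tail current of the secondary pulse compared with the same well before compound.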

Sequence of human ether-à-go-go-related gene (hERG) potassium channel (Q12809 whole entry, looked up): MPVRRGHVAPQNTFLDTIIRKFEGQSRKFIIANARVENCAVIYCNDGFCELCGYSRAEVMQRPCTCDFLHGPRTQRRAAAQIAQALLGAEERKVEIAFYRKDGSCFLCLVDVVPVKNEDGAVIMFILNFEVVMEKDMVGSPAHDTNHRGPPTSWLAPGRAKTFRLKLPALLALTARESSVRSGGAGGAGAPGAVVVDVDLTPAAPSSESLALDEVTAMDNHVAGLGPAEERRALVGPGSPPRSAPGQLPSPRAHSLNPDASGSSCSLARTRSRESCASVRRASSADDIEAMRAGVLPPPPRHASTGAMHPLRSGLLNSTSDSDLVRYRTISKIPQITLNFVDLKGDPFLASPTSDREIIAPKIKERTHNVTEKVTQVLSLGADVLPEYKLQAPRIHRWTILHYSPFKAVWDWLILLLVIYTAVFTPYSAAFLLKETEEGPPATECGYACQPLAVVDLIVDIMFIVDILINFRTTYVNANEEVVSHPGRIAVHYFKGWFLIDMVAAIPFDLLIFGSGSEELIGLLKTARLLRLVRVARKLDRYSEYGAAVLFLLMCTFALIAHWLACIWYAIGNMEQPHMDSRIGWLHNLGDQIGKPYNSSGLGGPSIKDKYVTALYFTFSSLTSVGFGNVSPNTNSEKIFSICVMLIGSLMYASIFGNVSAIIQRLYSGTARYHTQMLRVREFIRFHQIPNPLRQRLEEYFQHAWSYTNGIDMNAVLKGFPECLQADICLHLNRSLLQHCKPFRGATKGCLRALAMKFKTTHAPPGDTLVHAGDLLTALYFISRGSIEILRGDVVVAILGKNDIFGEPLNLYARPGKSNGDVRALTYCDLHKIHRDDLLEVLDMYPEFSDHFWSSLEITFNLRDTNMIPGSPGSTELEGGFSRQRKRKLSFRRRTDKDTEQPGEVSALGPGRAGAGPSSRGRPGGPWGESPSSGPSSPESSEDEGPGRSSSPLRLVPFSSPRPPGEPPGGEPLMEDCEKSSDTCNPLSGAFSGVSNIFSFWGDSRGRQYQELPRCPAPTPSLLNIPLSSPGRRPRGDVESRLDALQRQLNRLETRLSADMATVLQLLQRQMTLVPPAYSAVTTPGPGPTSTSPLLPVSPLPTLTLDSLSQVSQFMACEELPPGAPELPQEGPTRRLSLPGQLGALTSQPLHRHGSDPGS

Row | SMILES | hERG current change (%, negative = inhibition) at 10uM [%]
1 | N#Cc1cc(S(=O)(=O)N2CCOCC2)ccc1N1CCOCC1 | -7.53
2 | CN(C)S(=O)(=O)c1cccc(NC(=O)c2ccc(COc3ccccc3)cc2)c1 | 1.32
3 | CCc1cccc(NC(=O)C2CCN(S(=O)(=O)c3ccc4c(c3)NC(=O)CO4)CC2)c1 | -28
4 | Cc1nn(S(=O)(=O)c2ccccc2)c(C)c1S(=O)(=O)N1CCC(C)CC1 | 14.5
5 | CC1CCN(c2oc(-c3ccccc3Cl)nc2C#N)CC1 | 16.6
6 | O=S(=O)(Nc1nnc(-c2ccccc2)s1)c1ccc(Cl)cc1 | 0.769
7 | COc1cccc(/C=N/NC(=O)CC(=O)NCCc2ccccc2)c1OC | 6.02
8 | CC12CCC(C(=O)Nc3nc4ccccc4s3)(OC1=O)C2(C)C (stereo not shown) | 2.26
9 | Cc1c(NC(=S)N/N=C/c2ccc([N+](=O)[O-])cc2O)c(=O)n(-c2ccccc2)n1C | -1.93
10 | Cc1csc(NC(=O)CSc2nnc(Cn3c(=O)sc4ccccc43)n2-c2ccccc2)n1 | -9.94
11 | c1csc(-c2ccnc3ncnn23)c1 | 4.46
12 | CCc1cc(S(=O)(=O)N2CCN(C(=O)c3ccco3)CC2)ccc1OC | 1.76
13 | C=CCNC(=O)c1scc2c1CCCC2 | 12.4
14 | O=C(NCc1ccc(OC(F)(F)F)cc1)c1cc(-c2ccccc2)nn1CC1CC(c2cccnc2)=NO1 (stereo not shown) | -57.4
15 | COc1cc2c(cc1OC)C(C)N(C(=O)[C@@H](NC(=O)c1ccccc1)C(C)C)CC2 (stereo partly shown) | 11
16 | COc1cccc(C(=O)c2c(C)c(CCC#N)n3ccccc23)c1 | -10.6
17 | CCN1C(=O)c2cccc3c(S(=O)(=O)N(C(=O)c4ccncc4)c4ccc(OC)cc4)ccc1c23 | -7.51
18 | Cc1ccc2cc(C#N)c(N3CCCN(S(=O)(=O)c4ccccc4)CC3)nc2c1 | -10.3
19 | COc1ccc(Nc2cc(C(=O)NCCCN3CCOCC3)c3ccccc3n2)cc1 | -26.5
20 | O=c1[nH]c(C2CCN(S(=O)(=O)c3ccc(C(F)(F)F)cc3)CC2)nc2c1nnn2Cc1ccc(F)cc1 | -18
21 | COc1cccc(CNC2CN3CCC2CC3)c1OC.Cl (stereo not shown) | 12.2
22 | CC1Cc2ccccc2N1C(=O)CSc1nc2cc3c(cc2cc1C#N)OCO3 (stereo not shown) | 4.54
23 | CC(C)(C)c1cc(CCC(=O)NN)cc(C(C)(C)C)c1O | -9.33
24 | CC(=O)Nc1ccc(S(=O)(=O)Oc2ccc(C(=S)N3CCC(O)CC3)cc2)cc1 | -11.7
25 | CC(=O)c1ccc(NC(=S)NN2C(C)CCCC2C)cc1 (stereo not shown) | -31.7
26 | Cc1cc(C)c(C)c(S(=O)(=O)N2CCC(C(=O)N3CC(C)CC(C)C3)CC2)c1C (stereo not shown) | -1.87
27 | CCOC(=O)c1sc(NC(=O)Nc2ccc(Cl)cc2)nc1C | 13.3
28 | O=C(CO/N=C/c1ccccc1)N1c2ccccc2Oc2ccccc21 | -0.399

Row | SMILES | hERG current change (%, negative = inhibition) at 10uM [%]
29 | CN(C(=O)COC(=O)c1ccccc1SCC(=O)N1CCCC1)C1(C#N)CCCCC1 | -3.08
30 | C=CCNC(=O)/C(=C/c1ccc(Br)cc1)NC(=O)c1ccccc1OC | -45.9
31 | CC(C)=CCc1c(O)c(CC=C(C)C)c2c(c1O)C(=O)CC(c1ccc(O)cc1)O2 (stereo not shown) | 8.92
32 | Cc1ccccc1-n1cnnc1SCC(=O)Nc1cccnc1Cl | 4.06
33 | Cn1cccc1/C=C1\SC(=Nc2ccc(O)cc2)NC1=O | -13.4
34 | Cl.OC(COc1ccc2c(c1)OCO2)CN1CCc2ccccc2C1 (stereo not shown) | -28.5
35 | CCSc1ccccc1C(=O)NCc1ccc(S(N)(=O)=O)cc1 | -0.695
36 | CC(C)NC(=O)NNC(=O)Cn1nnc(-c2cccc(Cl)c2Cl)n1 | 8.05
37 | COc1ccc(NC(=O)CC2(CC(=O)N3CCOCC3)CCCC2)cc1Cl | -6.3
38 | CC(C)c1ccccc1OCC(=O)N1CCCN(C)CC1 | 6.46
39 | Cc1nnsc1C(=O)NCc1c(F)cccc1Cl | 14.7
40 | CCOC(=O)C1CCN(C(=O)Cc2c(C(=O)O)n(C)c3ccccc23)CC1 | 0.76
41 | O=C(Cc1n[nH]c(=O)c2ccccc12)N1CCN(c2ccc(F)cc2)CC1 | -30.4
42 | COC(=O)C1=C(c2ccc3ccccc3c2)C[C@@H]2CC[C@H]1N2C(=O)N1CCC(O)CC1 | 2.99
43 | O=C(O)CCCN1C(=O)C2C3CCC(O3)C2C1=O (stereo not shown) | 10.9
44 | Cc1ccc(/C=N/N2C(=O)c3ccccc3NC2c2ccc(C)cc2)cc1 (stereo not shown) | 15.3
45 | Nc1ccc2c(c1)-c1ccccc1S(=O)(=O)N2 | 11.1
46 | CCC(=O)NC(=S)Nc1ccc(NC(=S)NC(=O)c2ccc(C)cc2)cc1 | 12.9
47 | COc1ccccc1/C=C1\SC(=S)N(CCC(=O)NCCc2ccc(O)cc2)C1=O | 15.1
48 | CCOc1cc(/C=N\Nc2ncc(F)c(N3CCOCC3)n2)ccc1Oc1nc(Cl)ncc1F | -51.8
49 | CCOC(=O)c1ccc(NC(=S)NCCCn2ccnc2)cc1 | 21.1
50 | O=C(C1CCC(CNc2c(N3CCCCC3)c(=O)c2=O)CC1)N1CCN(C2CCCCC2)CC1 (stereo not shown) | 5.73
51 | COc1cc2c(cc1OC)CN(C(=O)c1ccc(Br)o1)CC2 | -12.9
52 | CC(Sc1ccccc1)C(=O)NNC(=O)c1ccncc1 (stereo not shown) | 17.1
53 | CCN1CCN(C(=O)c2ccc(Cn3c(=O)[nH]c4cc(OC)c(OC)cc4c3=O)cc2)CC1 | 6.64
54 | O=C(CCNC(=O)c1ccco1)Nc1ccc(SC(F)F)cc1 | -52.7
55 | O=C(NCCc1ccc(Cl)cc1)C1CCN(C(=O)c2sccc2-n2cccc2)CC1 | -32.9
